Measurements reported in the supplement of paper PMC4967469.
The IC50 comes from the fitted curve, where viability falls to half of the control; fits outside the tested doses are given as limits. For AUC the same curve is integrated over the 256-fold range of doses and scaled to a fraction; the more sensitive the line, the further below 1. For some assays here: An inferred top dose was derived from the fitted curves, not read from the paper.

Key:
Experiment in all cases: Viability of human cancer cell lines after 72 h of drug (GDSC screen)
[1] = compound: C=CC(=O)Nc1cc(-n2c(=O)ccc3cnc4ccc(-c5ccc(NS(C)(=O)=O)cc5)cc4c32)ccc1C [BMX-IN-1 (QL-XII-61)]; conditions: top dose 10 µM; top dose inferred
Experimental: (§1)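 Human cancer cell lines in 384-well plates, medium with 10% serum, drug for 72 h over a 256-fold dose range (nine 2-fold or five 4-fold steps up to the top dose). Adherent lines were fixed and stained with the nucleic acid dye Syto60, suspension lines read with resazurin; signal relative to control wells, capped at 0 and 100%. One two-parameter sigmoid per drug and line, fitted in a mixed model over all curves with the slope shared within a line.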

[2] = compound: C=CCNC1=C2C[C@@H](C)C[C@H](OC)[C@H](O)[C@@H](C)/C=C(\C)[C@H](OC(N)=O)[C@@H](OC)/C=C\C=C(/C)C(=O)NC(=CC1=O)C2=O [17-AAG]; conditions: top dose 1 µM
Experimental: as §1

[3] = compound: CCc1cc(-c2n[nH]c(C)c2-c2ccc3c(c2)OCCO3)c(O)cc1O [CCT018159]; conditions: top dose 10 µM; top dose inferred
Experimental: as §1

[4] = compound: CN(C)Cc1cccc(N=C(c2ccccc2)c2c(O)[nH]c3cc(C(=O)N(C)C)ccc23)c1 [BIX02189]; conditions: top dose 20 µM; top dose inferred
Experimental: as §1

[5] = compound: COC(=O)CNC(=O)C(=O)OC [Dimethyloxalylglycine]; conditions: top dose 4000 µM; top dose inferred
Experimental: as §1

[6] = compound: COc1cccc2c1C(=O)c1c(O)c3c(c(O)c1C2=O)C[C@@](O)(C(=O)CO)C[C@@H]3O[C@H]1C[C@H](N)[C@H](O)[C@H](C)O1 [Doxorubicin]; conditions: top dose 1.024 µM
Experimental: as §1

[7] = compound: COc1cccc2cc(-c3nc([C@H]4CC[C@H](C(=O)O)CC4)n4ncnc(N)c34)[nH]c12 [OSI-027]; conditions: top dose 20 µM
Experimental: as §1

[8] = compound: CS(=O)(=O)c1ccc(C(=O)Nc2ccc(Cl)c(-c3ccccn3)c2)c(Cl)c1 [Vismodegib]; conditions: top dose 10 µM; top dose inferred
Experimental: as §1

[9] = compound: Cc1cnc(Nc2ccc(F)cc2Cl)nc1-c1c[nH]c(C(=O)N[C@H](CO)c2cccc(Cl)c2)c1 [VX-11e]; conditions: top dose 5.12 µM; top dose inferred
Experimental: as §1

[10] = compound: Cc1cnc(Nc2ccc(OCCN3CCCC3)cc2)nc1Nc1cccc(S(=O)(=O)NC(C)(C)C)c1 [TG101348]; conditions: top dose 10.24 µM
Experimental: as §1

[11] = compound: O=C(c1ccc(C(=O)N2CCC(N3CCCC3)CC2)c(Nc2ccccc2)c1)N1CCC(N2CCCC2)CC1 [UNC1215]; conditions: top dose 1 µM; top dose inferred
Experimental: as §1

Cell Line: SK-MM-2 (myeloma, suspension)
- AUC [1]: 0.979
- IC50 [1]: > 10 µM
- AUC [2]: 0.977
- IC50 [2]: > 1 µM
- AUC [3]: 0.987
- IC50 [3]: > 10 µM
- AUC [4]: 0.91
- IC50 [4]: > 20 µM
- AUC [5]: 0.354
- IC50 [5]: 96.7 µM
- AUC [6]: 0.876
- IC50 [6]: > 1.02 µM
- AUC [7]: 0.21
- IC50 [7]: 0.167 µM
- AUC [8]: 0.987
- IC50 [8]: > 10 µM
- AUC [9]: 0.936
- IC50 [9]: > 5.12 µM
- AUC [10]: 0.54
- IC50 [10]: 0.828 µM
- AUC [11]: 0.984
- IC50 [11]: > 1 µM

Cell Line: NB14 (neuroblastoma, adherent)
- AUC [1]: 0.888
- IC50 [1]: > 10 µM
- AUC [2]: 0.972
- IC50 [2]: > 1 µM
- AUC [3]: 0.85
- IC50 [3]: 6.89 µM
- AUC [4]: 0.944
- IC50 [4]: > 20 µM
- AUC [5]: 0.72
- IC50 [5]: 1010 µM
- AUC [6]: 0.711
- IC50 [6]: 0.241 µM
- AUC [7]: 0.887
- IC50 [7]: > 20 µM
- AUC [8]: 0.989
- IC50 [8]: > 10 µM
- AUC [9]: 0.939
- IC50 [9]: > 5.12 µM
- AUC [10]: 0.921
- IC50 [10]: > 10.2 µM
- AUC [11]: 0.988
- IC50 [11]: > 1 µM

Cell Line: TE-12 (oesophagus, suspension)
- AUC [1]: 0.973
- IC50 [1]: > 10 µM
- AUC [2]: 0.689
- IC50 [2]: 0.239 µM
- AUC [3]: 0.872
- IC50 [3]: > 10 µM
- AUC [4]: 0.948
- IC50 [4]: > 20 µM
- AUC [5]: 0.477
- IC50 [5]: 213 µM
- AUC [6]: 0.5
- IC50 [6]: 0.0641 µM
- AUC [7]: 0.356
- IC50 [7]: 0.458 µM
- AUC [8]: 0.922
- IC50 [8]: > 10 µM
- AUC [9]: 0.933
- IC50 [9]: > 5.12 µM
- AUC [10]: 0.852
- IC50 [10]: > 10.2 µM
- AUC [11]: 0.978
- IC50 [11]: > 1 µM

Cell Line: NCI-H1563 (lung adenocarcinoma, adherent)
- AUC [1]: 0.973
- IC50 [1]: > 10 µM
- AUC [2]: 0.798
- IC50 [2]: 0.58 µM
- AUC [3]: 0.985
- IC50 [3]: > 10 µM
- AUC [4]: 0.925
- IC50 [4]: > 20 µM
- AUC [5]: 0.433
- IC50 [5]: 158 µM
- AUC [6]: 0.779
- IC50 [6]: 0.5 µM
- AUC [7]: 0.849
- IC50 [7]: 19.5 µM
- AUC [8]: 0.985
- IC50 [8]: > 10 µM
- AUC [9]: 0.958
- IC50 [9]: > 5.12 µM
- AUC [10]: 0.802
- IC50 [10]: 6.2 µM
- AUC [11]: 0.983
- IC50 [11]: > 1 µM

Cell Line: A388 (skin, adherent)
- AUC [1]: 0.895
- IC50 [1]: > 10 µM
- AUC [2]: 0.696
- IC50 [2]: 0.242 µM
- AUC [3]: 0.943
- IC50 [3]: > 10 µM
- AUC [4]: 0.977
- IC50 [4]: > 20 µM
- AUC [5]: 0.777
- IC50 [5]: 1860 µM
- AUC [6]: 0.395
- IC50 [6]: 0.0316 µM
- AUC [7]: 0.642
- IC50 [7]: 3.28 µM
- AUC [8]: 0.975
- IC50 [8]: > 10 µM
- AUC [9]: 0.981
- IC50 [9]: > 5.12 µM
- AUC [10]: 0.961
- IC50 [10]: > 10.2 µM
- AUC [11]: 0.981
- IC50 [11]: > 1 µM

Cell Line: H9 (lymphoid neoplasm, suspension)
- AUC [1]: 0.901
- IC50 [1]: 8.89 µM
- AUC [2]: 0.872
- IC50 [2]: 0.672 µM
- AUC [3]: 0.876
- IC50 [3]: 6.98 µM
- AUC [4]: 0.924
- IC50 [4]: > 20 µM
- AUC [5]: 0.807
- IC50 [5]: 1630 µM
- AUC [6]: 0.479
- IC50 [6]: 0.0568 µM
- AUC [7]: 0.808
- IC50 [7]: 8.22 µM
- AUC [8]: 0.988
- IC50 [8]: > 10 µM
- AUC [9]: 0.685
- IC50 [9]: 0.946 µM
- AUC [10]: 0.769
- IC50 [10]: 3.21 µM
- AUC [11]: 0.991
- IC50 [11]: > 1 µM

Cell Line: RERF-LC-Sq1 (lung squamous cell carcinoma, adherent)
- AUC [1]: 0.976
- IC50 [1]: > 10 µM
- AUC [2]: 0.657
- IC50 [2]: 0.21 µM
- AUC [3]: 0.946
- IC50 [3]: > 10 µM
- AUC [4]: 0.953
- IC50 [4]: > 20 µM
- AUC [5]: 0.807
- IC50 [5]: 3360 µM
- AUC [6]: 0.908
- IC50 [6]: > 1.02 µM
- AUC [7]: 0.756
- IC50 [7]: 10 µM
- AUC [8]: 0.961
- IC50 [8]: > 10 µM
- AUC [9]: 0.97
- IC50 [9]: > 5.12 µM
- AUC [10]: 0.837
- IC50 [10]: > 10.2 µM
- AUC [11]: 0.973
- IC50 [11]: > 1 µM

Cell Line: HCC-56 (large intestine, adherent)
- AUC [1]: 0.943
- IC50 [1]: > 10 µM
- AUC [2]: 0.787
- IC50 [2]: 0.445 µM
- AUC [3]: 0.985
- IC50 [3]: > 10 µM
- AUC [4]: 0.985
- IC50 [4]: > 20 µM
- AUC [5]: 0.944
- IC50 [5]: > 4000 µM
- AUC [6]: 0.675
- IC50 [6]: 0.2 µM
- AUC [7]: 0.849
- IC50 [7]: 15.7 µM
- AUC [8]: 0.959
- IC50 [8]: > 10 µM
- AUC [9]: 0.816
- IC50 [9]: 2.93 µM
- AUC [10]: 0.798
- IC50 [10]: 5.02 µM
- AUC [11]: 0.983
- IC50 [11]: > 1 µM

Cell Line: A253 (head and neck, adherent)
- AUC [1]: 0.988
- IC50 [1]: > 10 µM
- AUC [2]: 0.761
- IC50 [2]: 0.345 µM
- AUC [3]: 0.957
- IC50 [3]: > 10 µM
- AUC [4]: 0.985
- IC50 [4]: > 20 µM
- AUC [5]: 0.489
- AUC [6]: 0.446
- IC50 [6]: 0.0457 µM
- AUC [7]: 0.679
- IC50 [7]: 3.9 µM
- AUC [8]: 0.965
- IC50 [8]: > 10 µM
- AUC [9]: 0.985
- IC50 [9]: > 5.12 µM
- AUC [10]: 0.959
- IC50 [10]: > 10.2 µM
- AUC [11]: 0.988
- IC50 [11]: > 1 µM

Cell Line: ES-2 (ovary, adherent)
- AUC [1]: 0.99
- IC50 [1]: > 10 µM
- AUC [2]: 0.858
- IC50 [2]: 0.668 µM
- AUC [3]: 0.92
- IC50 [3]: > 10 µM
- AUC [4]: 0.903
- IC50 [4]: > 20 µM
- AUC [5]: 0.887
- IC50 [5]: 3530 µM
- AUC [6]: 0.842
- IC50 [6]: 0.594 µM
- AUC [7]: 0.628
- IC50 [7]: 2.69 µM
- AUC [8]: 0.966
- IC50 [8]: > 10 µM
- AUC [9]: 0.855
- IC50 [9]: 3.33 µM
- AUC [10]: 0.905
- IC50 [10]: > 10.2 µM
- AUC [11]: 0.99
- IC50 [11]: > 1 µM

Cell Line: SW684 (fibrosarcoma, adherent)
- AUC [1]: 0.968
- IC50 [1]: > 10 µM
- AUC [2]: 0.519
- IC50 [2]: 0.0721 µM
- AUC [3]: 0.897
- IC50 [3]: > 10 µM
- AUC [4]: 0.983
- IC50 [4]: > 20 µM
- AUC [5]: 0.775
- IC50 [5]: 2370 µM
- AUC [6]: 0.976
- IC50 [6]: > 1.02 µM
- AUC [7]: 0.926
- IC50 [7]: > 20 µM
- AUC [8]: 0.954
- IC50 [8]: > 10 µM
- AUC [9]: 0.983
- IC50 [9]: > 5.12 µM
- AUC [10]: 0.977
- IC50 [10]: > 10.2 µM
- AUC [11]: 0.98
- IC50 [11]: > 1 µM

Cell Line: TE-5 (oesophagus, adherent)
- AUC [1]: 0.924
- IC50 [1]: > 10 µM
- AUC [2]: 0.906
- IC50 [2]: > 1 µM
- AUC [3]: 0.964
- IC50 [3]: > 10 µM
- AUC [4]: 0.978
- IC50 [4]: > 20 µM
- AUC [5]: 0.715
- IC50 [5]: 1120 µM
- AUC [6]: 0.448
- IC50 [6]: 0.0451 µM
- AUC [7]: 0.453
- IC50 [7]: 0.913 µM
- AUC [8]: 0.961
- IC50 [8]: > 10 µM
- AUC [9]: 0.978
- IC50 [9]: > 5.12 µM
- AUC [10]: 0.956
- IC50 [10]: > 10.2 µM
- AUC [11]: 0.982
- IC50 [11]: > 1 µM
